From the supplement of paper PMC8728848
The other results are listed elsewhere or left out.

How the values were obtained:
Experiment in all cases: glycan array binding signal (z-score within array); higher = stronger binding
Conditions in all cases: glycan notation: IUPAC condensed, linker removed
[1] = target: Glc(b1-6)Glc(b1-6)Glc(b1-6)Glc(b1-6)Glc
Outline: (§1)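 Columns mapping to the same glycan were averaged after glycan names were converted to IUPAC-condensed notation. The data come from 3228 arrays in the Consortium for Functional Glycomics database, limited to those with an available protein sequence. Binding is reported as a within-array Z-score averaged across arrays of one protein sequence and across linkers.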

[2] = target: Glc(b1-6)Glc(b1-6)Glc(b1-6)Glc(b1-6)Glc(b1-6)Glc
Outline: as §1

[3] = target: Glc(b1-6)Glc(b1-6)Glc(b1-6)Glc(b1-6)Glc(b1-6)Glc(b1-6)Glc
Outline: as §1

[4] = target: Glc(b1-6)Glc(b1-6)Glc(b1-6)Glc(b1-6)Glc(b1-6)Glc(b1-6)Glc(b1-6)Glc
Outline: as §1

[5] = target: Glc(b1-6)Glc(b1-6)Glc(b1-6)Glc(b1-6)Glc(b1-6)Glc(b1-6)Glc(b1-6)Glc(b1-6)Glc
Outline: as §1

GlcA(b1-3)Gal = target: GlcA(b1-3)Gal
Outline: as §1

[6] = target: GlcA(b1-3)Gal(b1-3)GlcNAc
Outline: as §1

GlcA(b1-3)Gal(b1-4)Glc = target: GlcA(b1-3)Gal(b1-4)Glc
Outline: as §1

[7] = target: GlcA(b1-3)Gal(b1-4)GlcNAc(b1-3)Gal(b1-4)Glc
Outline: as §1

[8] = target: GlcA(b1-3)Gal(b1-4)GlcNAc(b1-3)Gal(b1-4)GlcNAc(b1-3)Gal(b1-4)Glc
Outline: as §1

GlcA(b1-3)GlcNAc = target: GlcA(b1-3)GlcNAc
Outline: as §1

[9] = target: GlcA(b1-3)GlcNAc(b1-4)GlcA(b1-3)GlcNAc
Outline: as §1

[10] = target: GlcA(b1-3)GlcNAc(b1-4)GlcA(b1-3)GlcNAc(b1-4)GlcA(b1-3)GlcNAc(b1-4)GlcA(b1-3)GlcNAc(b1-4)GlcA(b1-3)GlcNAc(b1-4)GlcA(b1-3)GlcNAc(b1-4)GlcA(b1-3)GlcNAc
Outline: as §1

[11] = target: GlcA(b1-4)GlcNAc(a1-4)GlcA(b1-4)2,5-Anhydro-Man
Outline: as §1

[12] = target: GlcA(b1-4)GlcNAc(a1-4)GlcA(b1-4)GlcNAc(a1-4)GlcA(b1-4)GlcNAc(a1-4)GlcA(b1-4)2,5-Anhydro-Man
Outline: as §1

GlcA(b1-6)Gal = target: GlcA(b1-6)Gal
Outline: as §1

GlcA3S(b1-3)Gal = target: GlcA3S(b1-3)Gal
Outline: as §1

GlcA3S(b1-3)Gal(b1-4)Glc = target: GlcA3S(b1-3)Gal(b1-4)Glc
Outline: as §1

[13] = target: GlcA3S(b1-3)Gal(b1-4)GlcNAc(b1-2)Man
Outline: as §1

[14] = target: GlcA3S(b1-3)Gal(b1-4)GlcNAc(b1-3)Gal(b1-4)Glc
Outline: as §1

[15] = target: GlcA3S(b1-3)Gal(b1-4)GlcNAc(b1-3)Gal(b1-4)GlcNAc(b1-3)Gal(b1-4)Glc
Outline: as §1

[16] = target: GlcNAc(a1-3)Gal(b1-4)GlcNAc
Outline: as §1

GlcNAc(a1-4)Gal = target: GlcNAc(a1-4)Gal
Outline: as §1

[17] = target: GlcNAc(a1-4)Gal(b1-3)GlcNAc
Outline: as §1

[18] = target: GlcNAc(a1-4)Gal(b1-3)[Fuc(a1-2)]Gal
Outline: as §1

[19] = target: GlcNAc(a1-4)Gal(b1-4)GalNAc
Outline: as §1

[20] = target: GlcNAc(a1-4)Gal(b1-4)GlcNAc
Outline: as §1

[21] = target: GlcNAc(a1-4)Gal(b1-4)GlcNAc(b1-3)Gal(b1-4)Glc
Outline: as §1

[22] = target: GlcNAc(a1-4)Gal(b1-4)GlcNAc(b1-3)Gal(b1-4)GlcNAc
Outline: as §1

[23] = target: GlcNAc(a1-4)Gal(b1-4)GlcNAc(b1-3)Gal(b1-4)GlcNAc(b1-3)Gal(b1-4)GlcNAc
Outline: as §1

[24] = target: GlcNAc(a1-4)Gal(b1-4)GlcNAc(b1-3)Gal(b1-4)[Fuc(a1-3)]GlcNAc(b1-3)Gal(b1-4)[Fuc(a1-3)]GlcNAc
Outline: as §1

[25] = target: GlcNAc(a1-6)Gal(b1-4)GlcNAc
Outline: as §1

GlcNAc(b1-2)Fuc = target: GlcNAc(b1-2)Fuc
Outline: as §1

[26] = target: GlcNAc(b1-2)Gal(b1-3)GalNAc
Outline: as §1

GlcNAc(b1-2)Man = target: GlcNAc(b1-2)Man
Outline: as §1

[27] = target: GlcNAc(b1-2)Man(a1-3)[GlcNAc(b1-2)Man(a1-6)]Man
Outline: as §1

[28] = target: GlcNAc(b1-2)Man(a1-3)[GlcNAc(b1-2)Man(a1-6)]Man(b1-4)GlcNAc(b1-4)GlcNAc
Outline: as §1

[29] = target: GlcNAc(b1-2)Man(a1-3)[GlcNAc(b1-2)Man(a1-6)]Man(b1-4)GlcNAc(b1-4)[Fuc(a1-6)]GlcNAc
Outline: as §1

[30] = target: GlcNAc(b1-2)Man(a1-3)[GlcNAc(b1-2)Man(a1-6)][GlcNAc(b1-4)]Man(b1-4)GlcNAc(b1-4)GlcNAc
Outline: as §1

[31] = target: GlcNAc(b1-2)Man(a1-3)[GlcNAc(b1-4)][GlcNAc(b1-2)Man(a1-6)]Man(b1-4)GlcNAc(b1-4)GlcNAc
Outline: as §1

[32] = target: GlcNAc(b1-2)Man(a1-3)[GlcNAc(b1-4)][GlcNAc(b1-2)Man(a1-6)]Man(b1-4)GlcNAc(b1-4)[Fuc(a1-6)]GlcNAc
Outline: as §1

[33] = target: GlcNAc(b1-2)Man(a1-3)[Man(a1-3)[Man(a1-6)]Man(a1-6)][GlcNAc(b1-4)]Man(b1-4)GlcNAc(b1-4)GlcNAc
Outline: as §1

[34] = target: GlcNAc(b1-2)[GlcNAc(b1-4)]Man(a1-3)[GlcNAc(b1-2)Man(a1-6)]Man(b1-4)GlcNAc(b1-4)GlcNAc
Outline: as §1

[35] = target: GlcNAc(b1-2)[GlcNAc(b1-4)]Man(a1-3)[GlcNAc(b1-2)Man(a1-6)][GlcNAc(b1-4)]Man(b1-4)GlcNAc(b1-4)GlcNAc
Outline: as §1

[36] = target: GlcNAc(b1-2)[GlcNAc(b1-4)]Man(a1-3)[GlcNAc(b1-2)[GlcNAc(b1-4)][GlcNAc(b1-6)]Man(a1-6)][GlcNAc(b1-4)]Man(b1-4)GlcNAc(b1-4)GlcNAc
Outline: as §1

B1: PNA (Arachis hypogaea), P02872 (protein)
chain: MKPFCVFLTFFLLLAASSKKVDSAETVSFNFNSFSEGNPAINFQGDVTVLSNGNIQLTNLNKVNSVGRVLYAMPVRIWSSATGNVASFLTSFSFEMKDIKDYDPADGIIFFIAPEDTQIPAGSIGGGTLGVSDTKGAGHFVGVEFDTYSNSEYNDPPTDHVGIDVNSVDSVKTVPWNSVSGAVVKVTVIYDSSTKTLSVAVTNDNGDITTIAQVVDLKAKLPERVKFGFSASGSLGGRQIHLIRSWSFTSTLITTTRRSIDNNEKKIMNMASA
- glycan array binding signal (z-score) [1]: -0.195
- glycan array binding signal (z-score) [2]: -0.195
- glycan array binding signal (z-score) [3]: -0.195
- glycan array binding signal (z-score) [4]: -0.195
- glycan array binding signal (z-score) [5]: -0.195
- glycan array binding signal (z-score) (GlcA(b1-3)Gal): -0.167
- glycan array binding signal (z-score) [6]: -0.195
- glycan array binding signal (z-score) (GlcA(b1-3)Gal(b1-4)Glc): -0.195
- glycan array binding signal (z-score) [7]: -0.195
- glycan array binding signal (z-score) [8]: -0.195
- glycan array binding signal (z-score) (GlcA(b1-3)GlcNAc): 0.03
- glycan array binding signal (z-score) [9]: -0.195
- glycan array binding signal (z-score) [10]: -0.195
- glycan array binding signal (z-score) [11]: -0.195
- glycan array binding signal (z-score) [12]: -0.195
- glycan array binding signal (z-score) (GlcA(b1-6)Gal): -0.15
- glycan array binding signal (z-score) (GlcA3S(b1-3)Gal): -0.195
- glycan array binding signal (z-score) (GlcA3S(b1-3)Gal(b1-4)Glc): -0.195
- glycan array binding signal (z-score) [13]: -0.368
- glycan array binding signal (z-score) [14]: -0.211
- glycan array binding signal (z-score) [15]: -0.195
- glycan array binding signal (z-score) [16]: -0.046
- glycan array binding signal (z-score) (GlcNAc(a1-4)Gal): -0.195
- glycan array binding signal (z-score) [17]: -0.12
- glycan array binding signal (z-score) [18]: -0.195
- glycan array binding signal (z-score) [19]: -0.151
- glycan array binding signal (z-score) [20]: 0.082
- glycan array binding signal (z-score) [21]: 0.054
- glycan array binding signal (z-score) [22]: 0.074
- glycan array binding signal (z-score) [23]: 0.017
- glycan array binding signal (z-score) [24]: -0.052
- glycan array binding signal (z-score) [25]: -0.165
- glycan array binding signal (z-score) (GlcNAc(b1-2)Fuc): -0.195
- glycan array binding signal (z-score) [26]: -0.177
- glycan array binding signal (z-score) (GlcNAc(b1-2)Man): -0.195
- glycan array binding signal (z-score) [27]: -0.195
- glycan array binding signal (z-score) [28]: -0.143
- glycan array binding signal (z-score) [29]: -0.132
- glycan array binding signal (z-score) [30]: -0.185
- glycan array binding signal (z-score) [31]: -0.158
- glycan array binding signal (z-score) [32]: -0.196
- glycan array binding signal (z-score) [33]: -0.195
- glycan array binding signal (z-score) [34]: -0.034
- glycan array binding signal (z-score) [35]: 0.022
- glycan array binding signal (z-score) [36]: -0.041
